Assay results published in US20090123474A1, “COMBINATION OF ANGIOPOIETIN-2 ANTAGONIST AND OF VEGF-A, KDR AND/OR FLTL ANTAGONIST FOR TREATING CANCER” (ASTRAZENECA AB, priority 2005, published 2009).

Target: T1, Angiopoietin-2 binding to Tie-2 (Homo sapiens, UniProt O15123)
T1 construct: purchased R&D Systems, Inc. BT623 (Angiopoietin-2, biotinylated); 313-TI-100 (Tie-2/Fc)
T1 sequence (O15123 19-496): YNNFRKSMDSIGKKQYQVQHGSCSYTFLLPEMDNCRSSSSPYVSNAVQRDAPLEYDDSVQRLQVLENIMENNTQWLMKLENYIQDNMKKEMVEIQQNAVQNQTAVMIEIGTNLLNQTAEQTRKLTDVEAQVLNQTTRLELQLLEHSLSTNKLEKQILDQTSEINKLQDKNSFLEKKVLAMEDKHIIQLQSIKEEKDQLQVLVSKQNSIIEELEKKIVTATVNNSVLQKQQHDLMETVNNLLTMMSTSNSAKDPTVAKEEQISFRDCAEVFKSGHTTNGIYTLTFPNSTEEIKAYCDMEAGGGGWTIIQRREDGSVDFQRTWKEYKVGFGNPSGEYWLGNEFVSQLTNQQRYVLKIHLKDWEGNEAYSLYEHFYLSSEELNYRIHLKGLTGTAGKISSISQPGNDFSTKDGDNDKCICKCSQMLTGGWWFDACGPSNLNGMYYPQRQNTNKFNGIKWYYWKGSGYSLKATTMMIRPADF
Assay: Competitive binding assay (modified ELISA): inhibition of Angiopoietin-2 binding to Tie-2
Protocol: As discussed above, Angiopoietin-2 exerts its biological effect by binding to the Tie-2 receptor. Monoclonal antibodies that inhibited Angiopoietin-2/Tie-2 binding were identified by a competitive binding assay using a modified ELISA. The mAb used were products of micro-purification from 50 ml of exhaustive supernatants of the hybridoma pools that were specific for Angiopoietin-2 (see above). 96-well Nunc Immplates™ were coated with 100 μl of recombinant human Tie-2/Fc fusion protein (R&D Systems, Inc., Cat. No. 313-TI-100) at 4 μg/ml by incubating overnight at 4° C. The plates were washed four times using Phosphate Buffer Saline (PBS) with a Skan™ Washer 300 station (SKATRON). […]
Biotinylated recombinant human Angiopoietin-2 (R&D Systems, Inc. Cat. No. […] Bound biotinylated Angiopoietin-2 was then detected using 100 μl/well of Streptavidin-HRP conjugate at 1:200 by incubating at room temperature for half an hour. After washing twice, the bound Streptavidin was detected by HRP substrate (R&D Systems, Cat. No. DY998). […] The light absorbance at 450 nm was determined by a Spectramax Plus reader. […]
To quantitate the inhibitory activities of the mAb on Angiopoietin-2 binding to Tie-2, the titer was determined for purified mAbs from the top candidates using a competitive binding assay. […] The maximal inhibition (efficacy) and IC50 (potency) were calculated by the software.

B1: mAb 5.103.1: fully human anti-Angiopoietin-2 monoclonal antibody, variable regions SEQ ID NO: 37-40 (antibody, listed as Homo Sapiens, listed as Homo sapiens, V domains shown)
VH: QVQLVQSGAEVKKPGASVKVSCKASGYTFTGYYLYWVPQAPGQGLEWMGWISPNSGGTNYAQKFQGRVTMTRDTSISTAYMELSRLRSDDTAVYYCARDQVIAVAGPFDYWAQGTLVTVSSA
VL: ETVMTQSPATLSVSPGERVTLSCRASQSVISSLAWYQQKPGQAPRLLIYGASTRATGIPARFSGSGSGTEFTLTISSLQSEDFAVYYCQQYNNWWTFGQGTKVEIKR
potency, competitive binding of Angiopoietin-2 to Tie-2, purified mAb
  EC50: 0.3643 µg/mL
Ratio of bound Angiopoietin-2 with mAb (30 μg/ml) versus without mAb
  Efficacy*: 0.2317
